Laboratory results: the RNAGym collection of RNA variant scans (doi:10.7554/elife.90254)
The source gives no read counts; variants with many changes may rest on few reads.

B1: LINE1-full (parent)
chain: UACGUAGGUGGUUUUCCCCUGAUAGUGCUAAGGGGGCCUGGAAGUUUGGACUGGGCAGAGCUCAACACAGCGUGGCAAAGUGGCUGUGGCUAGACUGCCUCUCUGGAUUCCUCGUCACUCAGCAGGGCAUCUCUGAGAGAAAUGCC

Variants of: B1
Assay: self-cleavage, relative activity (ratio to wild type); higher = more cleavage; in vitro, sequencing; the parent is a self-cleaving ribozyme

| Variant | self-cleavage |
| --- | --- |
| UACGUAGGUGGUUUUCCCCUGAUAGUGCUAAGGGGGCCUGGAGGUUUGGACUGGGCAGAGCUCAACACAGCGUGGCAAAGUGGCUGUGGCUAGACUGCCUCUCUGGACUCCUCGUCACUCAGCGGGGCAUCUCUGAGAGAAAUGCC | 1.93 |
| UACGAAGGUGGUUUUCCCCUGAUAGUGCUAAGGGGGCCUGGAAGUUUGGACUGGGCAGAGCUCAACACAGCGUGGCAAAGUGGCUGUGGCUAGACUGCCUCUCUGGAUUCCUCGUCACUCAGCGGGGCAUCUCUGUGAGAAAUGCC | 0.92 |
| UACGCAGGUGGUCUUCCCCUGAUAGUGCUAAGGGGGCCUGGAAGUUUGGACUGGGCAGAGCUCAACACAGCGUGGCAAAGUGGCUGUGGCUAGACUGCCUCUCUGGAUUCCUCGUCACUCCGCAGGGCAUCUCUGAGAGAAAUGCC | 1.06 |
| UACGUAGGUGGUUUUCCCCUGAUAGUGCUAAGGGGGCCCGGAAGUUUAGACAGGGCAGAGCUCAACACAGCGUGGCGAAGUGGCUGUGGCUAGACUGCCUCUCUGGAUUCCUCGUCACUCAGCAGGGCACCUCUGAGAGAAAUGCC | 2.3 |
| UACGUAGGUGGUCUUCCCCUGAUAGUUCUAAGGGGGCCUGGAAGUUUGGACUGGGCAGAGCUCAACACAGCGGGGCAAAGUGGCUGUGACUAGACUGCCUCUCUGGAUUCCUCGUCACUCAGCAGGGCAUCUCUGAGAGGAAUGCC | 0.09 |
| UACGUAGGUGGUUUUCCCCUGAUAGUGCUAAGGGGGCCUGGAAGUUUGGACUGGGCAGAGCUCAACACGGCGUGGUAAAGUGGCUGUGGCUAGGCUGCCUCUCUGGAUUCCUCGUCACUCAGCAGGGCAUCUCUGAGAGAAAUGCC | 0.08 |
| UACGUAGGUGGUCUUCCCCUGAUAGAGCUAGGGGGGCCUGGAAGUUUGGACUGGGCAGAGCUCAACACAGCGUGGCAAAGUGGCUGUGGCUAGACUGCCUCUCUGGAUUCCUCGUCACUCAGCAGGGCAUCUCUGAGAGAAAUGCC | 1.38 |
| UACGUAGGCGGUUUUCCCCUGAUAGUGCUAAGGGGGCCUGGAAGUUUGGACUGGGCAAAGCUCAACGCAGCGUGGCAAAGUGGCUGUGGCUAGACUGCCUCUCCGGAUUCCUCGUCACUCAGCAGGGCAUCUCUGAGAGAGAUGCC | 0.25 |
| UAUGUAGGUGGUUUUCCCCUGAUAGUGUUAGGGGGGCCUGGAAGUUUGGACUGGGCAGAGCUCAACACAGCGUGGCAAAGUGGCUGUGGCUAGACUGCCUCUCUGGAUUCCUCGUCACUCAGCAGGGCAUCUCUGAGAGAAAUGCC | 1.2 |
| UACGUAGGUGGUUUUCCCCUGAUAGUGCUAAGGGGACCUGGAAGUUUGGACUGGGCAGAGCUCAACACAGCGUGGCAAAGUGGCUGUGGCUAGACUGCCUCUCUGGACUCCUCGUCACUCAGCAGGGCAUCACUGAGAGAAAAGCC | 1.64 |
| UACGUAGGUGGUUUUCCCCUGAUAGUGCUAAGAGGGCCUGGAAGUUUGGACUGGGCAGAGCUCAGCACAGCGUGGCAAAGUGGCUGUGGCUAGACUGCCUCUCUGGAUUCCUCGUCAUUCAGCAGGGCAUCUCUGAGAGAAGUGCC | 0.04 |
| UACGUAGGUGGUUCUCCCCUGAUAGUGCUAAGGGGGCCUGGAAGUUUGGACUGGGCAGAGCUCAACACUGCGUGGCAAAGUGGCUGUGGCUAGACCGCCUCUCUGGAUUCCUCGUCACUCAGCAGGGCAUCUCUGAGAGAAAUGCC | 0.09 |
| UACGUAGGUGGUUUUCCCCUGAUAGUGCUAAGGGGGCCUGGAAGUUUGGACUGGGCAGAGCUCAACACAGCGUGGCAAUGUGGUUGCGGCUAGACUGCCUCUCUGGAUUCCUCGUCAGUCAGCAGGGCAUCUCUGAGAGAAAUGCC | 0.04 |
| UACGUAGGUGGUUAUCCCCUGAUAGUGCUAAGGGGGCCUGGAAGUUUGGACUGGGCAGAGCUCAACACAGCGUGGCAAAGUGGCUGUGGCUAGACUGCCUCUCUGGAUUCCUCGUCACUCAGCUGGGCACCUCUGAGAGAAACGCC | 0.4 |
| UACGUAGGUGGUUUUCCCCUGGUAGUGCUAAGGGGGCCUGGAAGUUAGGACUGGGCAGAGCUCAACACGGCGUGGCAAGGUGGCUGAGGCUAGACUGCCUCUCUGGAUUCCUCGUCACUCAGCAGGGCAUCUCUGAGAGAAAUGCC | 0.13 |
| UACGUAGGUGGUUUUCCCCUGAUAGUGCUAAGGGGGCCUGGAAGUUUGGACAGGGCGGAGCUCAACACAGCGUGGCAAAGUGGCUGUGGCUAGACUGCCUCUCUGGAUUCCUCGUCACUCAGCAGGGCAUCCCUGAGAGAAAUGCC | 0.7 |
| UACGUAGGUGGUAUUCUCCUGAUAGUGCUAAGGGGGCCUGGAAGUUUGGACUGGGCAGAGCUCAACACAGCGUGGCAAAGUGGCUGUGGCUAGACUGCCUCUCCGGAUUCCUCGUCACUCAGCAGGGCAUCUCUGAGAGAAAUGCC | 0.74 |
| UACGUAGGUAGUUUUCCCCUGAUAGUGCUAAGGGGGCCUGGAAGUUUGGACCGGGCAGAGCUCAACACAGCGUGGCAGAGUGGCUGUGGCUAGACUGCCUCUCUGGAUUCCCCGUCACUCAGCAGGGCGUCUCUGGGAGAAAUGCC | 0 |
| UACGUAGGUGGUUUUCCCCUGAUAGUGCUAAGGGGACCUGGAAGUUCGGACUGGGCAGAGCUCAACACAGCGUGGCAAAGUGGCUGUGGCUAGACUGGCUCUCAGGAUUCCUCGUCACUCAGCAGGGCAUCUCUGAGAGAAAUGCC | 0.07 |
| UACGUAGGCGGCAUUCCCCUGAUAGUGCUAAGGGGGCCUGGGAGUUUGGACUGGGCAGAGCUCGACACAGCGUGGCAAAGUGGCUGUGGCUAGACUGCCUCUCUGGAUUCCUCGUCACUCAGCAGGGCAUCUCUGAGAGAAGUGCC | 0.92 |

| Variant | self-cleavage |
| --- | --- |
| UACGUAGGCGGUUUUCCCCUGAUAGAGCUAAGGGGGCCUGGAAGUCAGGACUGGGCAGAGCUCAACACAGGGAGGCGAAGUGGCUGUGGCUAGACUGCCUCUCUGGAUUCCUCGUCACUCAGCAGGGCAUCUCUGAGAGAAAUGCC | 0.16 |
| UACGUAGGUGGUUUUCCCCUGAUAGUGCUAAGGGGGCCCGGAAGACUGGACUGGGCAGAGCUCAACACAGCGUGGCAAAGUGGCUGUGGCUAGACUGCCUCUCUGGAUACCCCGUCACUCAGCAGGGCAUCUCUGAGAGAAAUGCC | 0.51 |
| UACGUAGGUGGUUUUCCCCUGAUAGUGCUAAGGGGGCCUGGAAGUUUGGACUGGGCAGAGCUCAACACAGCGUGGCAAAGUGGCUGCGGCUAGACUGCCUCUCUGGACUCCUCGUCACUCAGCAGGGCAUCUCAGAGAGUAAUGCC | 0 |
| UACGUAGGUGGUUUUCCCCUGAUAGUGCUAAGGGGGCCUGGAAGUUUGGACUGGGCAGAGCUCAACACAGCGUGGCAAAGUGGCUGUGGCUAGACAGCCUCUCCGGAUUCCUCGUCACUCAGCAGGGCAUCCCUGAGAGAAAUGCC | 0.08 |
| UACGUAGGUGGUUUCCCCCUGACAGUGCUAAGGGGGCCUGGAAGUUUGGACUGGGCAGAGCUCAACUCAGCGUGGCAAAGUGGCUGUGGCUAGACUGCCUCUCUGGGUUCCUCGUCACUCAGCAGGGCAUCUCUGAGAGAAAUGCC | 0.16 |
| UACGUAGGUGGUUUUCCCCUGAUAGUGCUAAGGGGGCCUGGAAGUUUGGACUGGGCAGAGCUCAACACAGCGUGGCAGUGUGGCCGUGGCUAGACUGCCCCUCUGGAUUCCUCGUCACUCAGCAGGGCAUCUCUGAGAGAAAUGCC | 0.43 |
| UACGUAGGUGGUUUUCCCCUGACAGUGCUAAGGGGGCCUGGAAGUUUGGACUGGGCAGUGCUCAACACAGCGUGGCAAAGUGGCUGUGGCUAGACUGCCUCUCUGGAUUCCUCGUCACUCAGCAGGGCAUCUCUGAGAGAAACGCC | 0.59 |
| UACGUAGGUGGUUUUCCCCUGACAGUGCUAAGGGGGCCUGGAAGUUGGGACUGGGCAGAGCUCAACACAGCGUGGCAAAGUGGCUGUGGCUAGACUGCCUCUCUGGAUUCCUCGUCACUCUGCAGGUCAUCUCUGAGAGAAAUGCC | 1.65 |
| UACGUAGGUGGUUUUCCCCUGAUAGUGUUAAGGGGGCCUGGAAGUUUGGACUGGGCGGAGCUCAACACAGCGUGGCAAAGUGGCUGUGGCUAGACUGCCUCUCUGGACUCCUCGUCACUCAGCAGGGCAUCUCUGAGAGAAAUGCC | 1.84 |
| UACGUAGGUGGUUUUCCCCUGAUAGUGCUAAGGGGGCCUGGAAGUUUGGACUGGGCAGUGUUCGACACGGCGUGGCAAAGUGGCUGUGGCUAGACUGCCUCUCCGGAUUCCACGUCACUCAGCAGGGCAUCUCUGAGAGAAAUGCC | 0.19 |
| UACGUAGGUGGUUCUCCCCUGAUAGUGCUAAGGGGGCCUGGAAGUUUGGACUGGGCAGAGCUCAACACAGCGUGGCAAAGUGGCUGUGGCUAGACUGCCCCUCUGGAUUCCUCGUCACUCAGCAGGGCAUCUCUGAGAGAAGUGCC | 0.93 |
| UACGUAGGUGGUUCUCCCCUGAUAGUGCUAAGGGGGCCUGGAAGUUUGGACUGGGCAGAGCUCAACACAGCGUGGCAAAGUGGCUGAGGCUAGACUGCCUCUCUGGAUUCCUCGACACUCAGCAGGGCAUCUCUGAGAGAAGUGCC | 0.18 |
| UACGUGGGUGGUUCUCCCCUGAUAGCGCUAAGGGGGCCUGGAAGUUUGGACUGGGCAGAGCUCGACACAGCGUGGCAAAGUGGCUGUGACUAGGCUGCCUCUCUGGAUUCCUCGUCACUCAGCAGGGCAUCUCUGGGAGAAAUGCC | 0 |
| UACGUAGGUGGUCCUCCCCUGAUAGUGCUAAGGGGGCCUGGAAGUUUGGACUGGGCAGAGCUCAACACAGCGUGGCAAAGUGGCUGUGGCUAGACUGCCUCUCUGGAUCCCUCGUCACUCAGCAGGGCACCUCUGAGAGAAAUGCC | 0.37 |
| UACGUAGGUGGUUUUCCCCUGAUAGUGCUAAGGUGGCCUGGAAGUUUGGACUGGGCAGAGCUCAGCACAGCGUGGCAAAGUGGCUGUGGCUAGACUGCCUCUCUGGAUUCCUCGUCACUCAGCUGGGCAUCUCUGAGAGAAAUGCC | 0.03 |
| UACGUAGGUGGUUUUCCCCUGAUAGUGCUUAGGGGGCCUGGAAGUUUGGACUGGGCAGAGCUCAACACAGCGUGGCAAAGUGGCUGUGGCUAGACUGCCUCUCUGGAUUCCUCGUCACUCAGCUGGGCAUCUCUGAGAGGAAUGCC | 0.37 |
| UACGUAGGUGGUUUUCCCCCGUUAGUGCUAAGGGGGCCUGGAGGUUUGGACUGGGCAGAGCUCAACACAGCGUUGCAAAGUGGCUGUGGCUAGACUGCCCCUCUGGAUUCCUCGUCACUCAGCAGGGCAUCUCUGAGAGAAAUGCC | 0 |
| UACGUAGGUGGUUUCCCCCUGAUAGUGCUAAGGGGGCCUGGAAGUUUGGACUGGGCAGAGCUCAACACAGCGUGGCAAAGUGGCUGAGGCUAGACGGCCUCUCUGGAUUCCUCGUCACUCAGCAGGGCAUCUCUGAGGGAAAUGCC | 0.22 |
| UACGUAGGUGGUUUUCCCCUGAUAGUGCUAAGGGGGCCUGGAAGUUUGGACUGGGCAGAGCUCAACACAGCGUGGCAAAGUGGCUGUGGCUAGACUGCCUCUCUGGAUUCCUUGUCCCUCAGCAGGGCAUCUCUGAGAGAAGUGCC | 1.11 |
